These results are taken from the supplement of paper PMC10338343.

± gives the standard deviation. In all, about 6,600 sequences were measured (“pre-steady-state target cleavage rate”: median about 0.07, highest 2% from about 0.72 on). The entries are a selection whose mix differs from that of the whole data set. Some results are limits rather than exact numbers.

In the assay the test system is MIWI (PIWIL1) piRISC loaded with Kctd7 piRNA (30 nt). The assay is described as follows: pre-steady-state target cleavage rate (min^-1); MIWI and MILI are mouse PIWI proteins and EfPiwi is from a freshwater sponge; tags in brackets are library labels; higher = faster piRNA-guided slicing of the target. The note with it: guide: Kctd7 piRNA 5'p-UGUUAAUCUCUCAGAGAAGGUGACAGUGAU; auxiliary factor: 500 nM mouse GTSF1. Put shortly:
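In Cleave-'n-Seq, a transcribed, DNA-blocked target RNA library (0.1 nM) was combined with 1 nM active affinity-purified piRISC bearing one synthetic guide, with or without 500 nM GTSF1 partner protein. Reactions ran in HEPES–potassium acetate buffer at 33 °C for 0–8 or 0–960 min. Uncleaved targets were sequenced and normalised to depth and to weakly complementary targets, three trials were pooled, and k3 was capped at 0.0001 min^-1. The pre-steady-state cleavage rate was obtained by fitting a burst-and-steady-state model.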
Turning to UAGUGACAGUGGAUGUCUGAGAGUUUAACA, the “pre-steady-state target cleavage rate” value was below 0.0001. Regarding UAGACUGUCUCCUUCACUGAGAGAUUAACA, the “pre-steady-state target cleavage rate” value came out at 0.279 ± 0.018.

Take UAGUGAGUCACCUUCUCUGAGAGAUUAAUA: the “pre-steady-state target cleavage rate” value worked out at 0.387 ± 0.036. The same measure for UAGUCUGUCAGCUUCUCUGAGAGAUUAUCA: 0.183 ± 0.031; for UAGUGACAGUCCUUCUCAGAGAGAUUUACA: 0.00666 ± 0.0044. In the case of UACACUGUCACCUUCUGAGAGAGAUUAAGA it was 0.0134 ± 0.0062; in that of UUCACUGUCACCUUCUCACAGAGAUUAUGA, 0.0046 ± 0.0037; in that of UUCACUGUCACGAACUCUGAGAGAUUAUGA, below 0.0001. For UAGUGUGUCACCUUCAGAGAGAGAUUUUGA, the “pre-steady-state target cleavage rate” value was determined as 0.00707 ± 0.0068. Regarding UAGUGACAGUCCUUCACUGUGAGAUUAACA, the “pre-steady-state target cleavage rate” value stood at 0.00288 ± 0.0029. The same measure for “UAGUGACACACCUUCUCUGAGACUAAUUGA [g9:g22:cont:t1A]”: below 0.0001. The same measure for UAGUGUGUCACCUUCUCUGAGAGAUUUAGA: 0.0619 ± 0.015. In the case of UUCACUCUCACCUUCUCUGAGAGUUUAACA it was 0.0925 ± 0.013. Take UACACUGUCACCUUCUCUGAGAGAUUAUACA: the “pre-steady-state target cleavage rate” value was 0.289 ± 0.046. Take UAGUGACAGUCCUUCUCUGAAAGAUUAACA: the “pre-steady-state target cleavage rate” value came out at 0.0406 ± 0.0064.

On to UAGUGACAGUGGAACUCUGACACAUUAACA, for which the “pre-steady-state target cleavage rate” value was below 0.0001. In the case of UAGAGUGUCACCUUGUCUGAGAGAUUAACA it was 0.183 ± 0.026; in that of UAGUGAGUCACCUUCUCUGAUAGAUUAACA, 0.44 ± 0.024; in that of UUCACUGUCACGAACUCUGAGAGAUUAACA, 0.169 ± 0.021. In the case of UUGACUGUCACCUUCUCUGAGAGAAUAACA it was 0.52 ± 0.09; in that of UACACUGUCACCUUCUGUGAGAGUUUAACA, 0.0834 ± 0.016; in that of UACACUGUCACUCUUCUCUGAGAGAUUAACA, 0.498 ± 0.022.

In the case of UAGUGUGUCACGUUCUCUGAGUGAUUAACA, the “pre-steady-state target cleavage rate” value amounted to 0.0182 ± 0.0049. The same measure for UAGUGAGUCAGCUUCUCAGAGAGAUUAACA: 0.252 ± 0.018; for UAGACUCAGACCUUCUCUGAGAGAUUAACA: 0.145 ± 0.014; for UAGUGACCCACCUUCUCUGAGAGAUUAACA: 0.534 ± 0.054. The same measure for AUCACUGUCACGCUUCUCUGAGAGAUUAACA: 0.598 ± 0.026. The same measure for UAGUGACAGACCUUCUCUGUGAGAUUAUCA: 0.0196 ± 0.0072. Regarding UACACUGUCACCAUCUCUGAGAGAUUAUCA, the “pre-steady-state target cleavage rate” value was 0.229 ± 0.025. The same measure for UACACUGUCACCUUCUCUGAGAGAUUUAACA: 0.457 ± 0.052; for UAGUGUGUCACCUUCUCUGAGAGUUUAUCA: 0.232 ± 0.056; for UAGUGACACACCUUCUCUGAGAGAUAAACA: 0.356 ± 0.043.

Take “UAGUCUGUCACCUUCUCUGAGAGAUUAACA [g2:g26:cont:t1A]”: the “pre-steady-state target cleavage rate” value stood at 0.631 ± 0.026. As for UAGACUGUCACCUUCUCAGAGUGAUUAACA, the “pre-steady-state target cleavage rate” value was 0.0137 ± 0.0029. The same measure for UAGUCUGUCACCUUGACUGAGAGAUUAACA: 0.0749 ± 0.0088; for UAGUCUGUCACCUUCUCUGAGAGAUUAAA: 0.159 ± 0.025; for UAGUCUGUCACCUUCUCUGAGAGAAUAAGA: 0.036 ± 0.012.

Turning to UAGUGACACACCUUUUCUGAGAGAUUAACA, the “pre-steady-state target cleavage rate” value was 0.277 ± 0.022.

With UAGUGUGUCACCUUCUCUUAGAGAUUAACA, the “pre-steady-state target cleavage rate” value is 0.352 ± 0.025. In the case of UAGACUGUCUGGUUCUCUGAGAGAUUAAGA it was 0.00926 ± 0.0023. The same measure for UAGUGACAGACCUUCUCUGAGAGAUCAACA: 0.146 ± 0.03. The same measure for UAGUGACUCACCUUCUCUGAGAUAUUAACA: 0.269 ± 0.038; for UAGUCUGUCACCUUGUCUGAGAGAUUUACA: 0.25 ± 0.045; for UUCACUGUGACCUUCUCUGAGAGAUAUUGA: 0.0216 ± 0.0063.

As for AUCACUGUCACCUUCUCUGAGAGAUAAACA, the “pre-steady-state target cleavage rate” value is 0.384 ± 0.042. In the case of UAGUGACUCACCUUCUCUGUGAGAUUAUGA it was 0.00708 ± 0.0039. Regarding AUCACUGACACCUUCUCUGAGAGAAUAACA, the “pre-steady-state target cleavage rate” value was 0.533 ± 0.13.

In the case of UAGUGACAGACCUUCUCUGUGAGUUUAACA, the “pre-steady-state target cleavage rate” value is 0.0139 ± 0.0037. Turning to UUCACUGUCACGUUCUCUGAGAGAUUUACA, the “pre-steady-state target cleavage rate” value was 0.212 ± 0.024.

Consider UAGUGAGACACCUUCUCUGUGAGAUUAACA, for which the “pre-steady-state target cleavage rate” value stood at 0.188 ± 0.016. The same measure for UAGUGACAGUGCUUACUCUGAGAGAUUAACA: 0.00672 ± 0.002; for UAGUGAGACACCUUCUCAGAGAGAUUAACA: 0.122 ± 0.012; for UAGUGACACACGUUGUCUGAGAGAUUAACA: 0.0596 ± 0.011. For AUGACUGUCACCUUCUCUGAGAGAUUAUCA, the “pre-steady-state target cleavage rate” value turned out to be 0.347 ± 0.038. Consider UAGUGAGAGUCCUUCUCUGAGAGAUUAUGA, for which the “pre-steady-state target cleavage rate” value turned out to be 0.00681 ± 0.0037. In the case of UACACUCAGACCUUCUCUGAGAGAUUAACA it was 0.353 ± 0.026; in that of AUCACUGACACCUUCUCUGAGAGAUUAAGA, 0.167 ± 0.034.

For the sequence UUGACUGUCAGCUUCUCUGAGAGAUUAACA, the “pre-steady-state target cleavage rate” value worked out at 0.695 ± 0.038. The same measure for UAGUGACACUCCUACUCUGAGAGAUUAACA: 0.0652 ± 0.0084; for UAGUGACAGUCCUUCACUGAGAGAUUUACA: 0.0106 ± 0.0034; for UAGUGAGUCACCUUCUCUGAGAGAUUAGCA: 0.19 ± 0.023.

For UAGUGUCUCUCCUUCUCUGAGAGAUUAACA, the “pre-steady-state target cleavage rate” value was 0.0958 ± 0.012. As to UAGACUGUGACCUUCUCUGAGAGAAUAACA, the “pre-steady-state target cleavage rate” value was 0.261 ± 0.041. The same measure for UACACUGUGACCUACUCUGAGAGAUUAACA: 0.384 ± 0.021. The same measure for UAGAACUGUCACCUUCUCUGAGAGAUUAACA: 0.682 ± 0.054; for UAGACAGUCACCUUCUCUGAGUGAUUAACA: 0.0307 ± 0.006; for UAGUGACACACGUUCUCUGAGACAUUAACA: 0.00339 ± 0.0024. For the sequence UAGUGACUCACCAUCUCUGAGAGAUUUACA, the “pre-steady-state target cleavage rate” value turned out to be 0.0844 ± 0.013.

As for UAGUGAGUCUCGUUCUCUGAGAGAUUAACA, the “pre-steady-state target cleavage rate” value was 0.315 ± 0.023. In the case of UAGUGACUCACCUUGUCUGAGAGUUUAACA it was 0.0484 ± 0.016. In the case of UAGUGACACACCUUCUCUGUGAGAUAAACA it was 0.0853 ± 0.014; in that of UAGUGACACACCUUCACUGAGAGAUUAUCA, 0.0626 ± 0.016. As for UAGUGACAGUGGAUCUCUGAGAGAUUCACA, the “pre-steady-state target cleavage rate” value is below 0.0001. The same measure for UAGUGAGUCACCUUCUCUGAGAGAUUAAA: 0.226 ± 0.035. In the case of AUCACUGUCAGCUUCUCUGUGAGAUUAACA it was 0.237 ± 0.013; in that of UAGACUGUCACCUUCUCUCAGAGAUUAUGA, 0.00711 ± 0.0033. UAGUGUGUCACUUUCUCUGAGAGAUUAACA: the “pre-steady-state target cleavage rate” value was 0.553 ± 0.026. In the case of UAGUGACAGUGGAAGUCUGUCAGAUUAACA it was below 0.0001; in that of UAGUGACUCCCCUUCUCUGAGAGAUUAACA, 0.347 ± 0.037; in that of UAGUGACACACCUUCUCUGAGAGAUAUACA, 0.118 ± 0.024. Regarding UAGUCUGUCACCUUCACUGAGACAUUAACA, the “pre-steady-state target cleavage rate” value came out at 0.257 ± 0.033. In the case of UAGUCUGUCACCUUCUCUGUGAGAAUAACA it was 0.0572 ± 0.01; in that of UAGUGUGCUCACCUUCUCUGAGAGAUUAACA, 0.605 ± 0.046. In the case of UACACUGUCACCUUCUUGAGAGAUUAACA it was 0.0539 ± 0.018; in that of UACACAGUGACCUUCUCUGAGAGAUUAACA, 0.345 ± 0.021. The same measure for UAGUGUGUCUCCUUCUCUGAGAGAUUAUCA: 0.0796 ± 0.013; for UUCACUGUCACCUUCUCUGAGUGAUAAACA: 0.0317 ± 0.0065; for UAGUGACAGUGGAAGAGUGAGAGAUAUACA: below 0.0001. In the case of UAGACUGUCACGUUCUCUGUGAGAUUAACA, the “pre-steady-state target cleavage rate” value is 0.168 ± 0.011. In the case of UAGUCUGUCACUCUUCUCUGAGAGAUUAACA it was 0.543 ± 0.03; in that of UAGACUGUCACCCUUCUCUGAGAGAUUAACA, 0.517 ± 0.042.
